{"source": "PubChem BioAssay AID686971", "about": "(National Center for Advancing Translational Sciences (NCATS), 2013)", "note": "Hit rate of the full screen: of about 360,000 compounds, about 7,500 (2.1%) were called active. The inconclusive results got no clear call from the source; some entries with a clear call stand among them for comparison. Calls follow the shape of the dose curve; as a rule, active = well fitted cell-killing curve with a large enough effect; inconclusive = small, poorly fitted or top-dose-only effect, or effect the other way, or another doubt; inactive = no such curve, though single readings can be large or run the other way. No potency is given beside an inconclusive call; the fits are too rough. Potency is read from the fitted curve at half-maximal effect; tags tell the direction and shape of the fitted curve.", "data": [{"assay": "qHTS for induction of synthetic lethality in tumor cells producing 2HG: qHTS for the HT-1080-IDH1KD cell line;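 as to activity, negative = toxicity: 0% = DMSO wells and -100% = cell-free medium wells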", "settings": "HT-1080 IDH1 knockdown viability, ATP luminescence, 48 h; activity, negative = toxicity: at 46.1 µM (top of the series) unless noted", "outline": "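Luminescent ATP read-out (CellTiter-Glo, 10 min at room temperature) after 48 h compound exposure at 37 °C gave viability of IDH1-knockdown HT-1080 cells. Activity was normalised to DMSO and cell-free wells, then fitted as concentration-response curves.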", "values": [{"smiles": "COc1ccc2c(c1)OC[C@H]1[C@H]2N2C(=O)c3cc(F)ccc3NC(=O)[C@@]2(C)[C@H]1c1ccccc1", "Potency": "inconclusive [cytotoxic, single point]"}, {"smiles": "c1ccc(-c2nnc3n2N=C(c2ccc4c(c2)OCO4)CS3)nc1", "activity, negative = toxicity": "inactive: 3.91%"}, {"smiles": "Fc1ccc2c(c1)Sc1ccc(Cl)cc1CC2N1CCN(CCC2OCCO2)CC1", "note": "(centres undefined)", "Potency": "inconclusive [cytotoxic, single point]"}, {"smiles": "Cc1cc2ccccn2c1C(=O)c1ccc(NN)c([N+](=O)[O-])c1", "Potency": "inconclusive [cytotoxic, partial curve]"}, {"smiles": "COC(=O)c1ccccc1NCc1cc(=O)oc2cc(O)c(O)cc12", "Potency": "inconclusive [cytotoxic, partial curve]"}, {"smiles": "O=C(N/N=C/c1cccc2ccccc12)c1n[nH]c2c1CCCC2", "Potency": "active: 1.46 µM"}, {"smiles": "COc1ccc(NS(=O)(=O)c2cccc(C(=O)N/N=C/c3cn(-c4ccccc4)nc3-c3ccccc3)c2)cc1", "Potency": "inconclusive [rising, partial curve, poor fit]"}, {"smiles": "CC(C)C[C@@H](CN1CCC[C@H]1CN1C(=O)C(=O)NC[C@@H]1Cc1ccccc1)N1C[C@H](Cc2ccccc2)N(CC2CCCCC2)C(=O)C1=O", "Potency": "inconclusive [cytotoxic, single point]"}, {"smiles": "N#CC(C#N)=c1ccc2c(c1)NC1(CCCCC1)N=2", "Potency": "active: 23.1 µM"}, {"smiles": "Cc1cc(C)cc(N2C(N)=NC(N)=NC2c2ccccc2F)c1", "note": "(centres undefined)", "Potency": "inconclusive [cytotoxic, single point]"}, {"smiles": "CC(C)OCCCN1C(=O)c2[nH]nc(-c3ccccc3O)c2C1c1cccc(Cl)c1", "note": "(centres undefined)", "Potency": "inconclusive [cytotoxic, single point]"}, {"smiles": "CCC(C)NC(=O)C1CCC(CNS(=O)(=O)c2cccc3nsnc23)CC1", "note": "(centres undefined)", "activity, negative = toxicity": "inactive: 6.38%"}, {"smiles": "Cc1ccc(-c2nc(CS(=O)CC(=O)NCCN3CCCCC3C)c(C)o2)cc1", "note": "(centres undefined)", "activity, negative = toxicity": "inactive: 5.9%"}, {"smiles": "O=C(O)CC(NC(=O)Cc1ccc([N+](=O)[O-])cc1)c1ccc2c(c1)OCO2", "note": "(centres undefined)", "activity, negative = toxicity": "inconclusive: -7.1% [cytotoxic]"}, {"smiles": "CN(C)CCCNc1ncnc2oc(-c3ccccc3)c(-c3ccccc3)c12", "Potency": "active: 23.1 µM"}, {"smiles": "CCCCn1c(SCC(=O)Nc2nnc(CC)s2)nc2c1c(=O)n(C)c(=O)n2C", "Potency": "active: 2.82 µM"}, {"smiles": "COCCc1ccc(OC2(C)CCN(Cc3ccc(OC)c4ccccc34)C2)cc1", "note": "(centres undefined)", "Potency": "inconclusive [cytotoxic, single point]"}, {"smiles": "CCC(C)c1ccccc1N1CC(C(=O)N2CCN(c3ccccc3)CC2)CC1=O", "note": "(centres undefined)", "activity, negative = toxicity": "inactive: -13%"}, {"smiles": "Cc1nnc2ccc(Oc3ccc(-c4ccccc4)cc3)nn12", "Potency": "inconclusive [cytotoxic, single point]"}]}]}
